{"source": "PubChem BioAssay AID651557", "about": "(The Scripps Research Institute Molecular Screening Center, 2012)", "molecular_target": "Melanocortin receptor 4 (Homo sapiens) (UniProt P32245)", "sequence (P32245 whole entry, looked up)": "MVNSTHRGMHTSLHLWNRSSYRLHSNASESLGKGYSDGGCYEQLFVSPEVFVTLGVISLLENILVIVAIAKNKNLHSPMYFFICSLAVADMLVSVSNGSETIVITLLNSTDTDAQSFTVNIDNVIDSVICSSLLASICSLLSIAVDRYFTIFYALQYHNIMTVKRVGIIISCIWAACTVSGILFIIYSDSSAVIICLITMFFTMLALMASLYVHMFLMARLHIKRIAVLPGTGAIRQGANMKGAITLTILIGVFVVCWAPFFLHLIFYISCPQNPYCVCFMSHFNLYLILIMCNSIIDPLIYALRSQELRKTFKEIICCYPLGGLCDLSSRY", "test": "MC4R antagonists blocking beta-arrestin recruitment, late-stage follow-up, luminescence, biased ligand project, U2OS cells (AID 651557)", "conditions": "beta-gal complementation luminescence", "note": "For part of its entries the source gives two or more results. This list holds those alone.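 Rule for the calls: active = IC50 half-maximal inhibitory concentration at most 10 µM; inactive = IC50 above 10 µM.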 There may be further records. The values listed for one entry are repeated measurements (runs, samples, wells, individuals or studies). A tag in brackets gives the origin of a value. Letters hold for one entry only.", "data": [{"smiles": "CCC1CCCCN1S(=O)(=O)c1ccc(NC(=O)c2nc(S(C)(=O)=O)ncc2Cl)cc1", "note": "(stereo unspecified)", "values": [{"measurement": "IC50", "value": "2.93 µM [sample A] and inactive [sample B]"}]}]}
